PubChem BioAssay AID504333 (National Center for Advancing Translational Sciences (NCATS), 2011)
The whole screen tested about 360,000 compounds, of which about 16,000 (4.4%) were called active. Inconclusive means that the source gave no clear call. Such entries were picked first, then a sample of the others. The call rests on the fitted dose curve; in most records, active means well fitted inhibition curve with a large enough effect; inconclusive means small, poorly fitted or top-dose-only effect; inactive means no such curve, though single readings can be large or run the other way. A potency beside an inconclusive call is a rough fit, not a confirmed value.

These compounds were tested against Bromodomain adjacent to zinc finger domain protein 2B (Homo sapiens) (UniProt Q9UIF8) (assay: qHTS Assay for Inhibitors of BAZ2B). Details: AlphaScreen BAZ2B-H3K14Ac peptide displacement; activity change, negative = inhibition: at 114 µM (top of the series) unless noted.
Method in brief: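 Protein-peptide AlphaScreen: BAZ2B 50 nM, b-H3K14Ac 50 nM, 1x PBS pH 7.4 + 0.01% Tween-20. Preincubation 30 min RT; cpd 30 min RT (top 110 uM); beads 20 min RT, light-protected.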
Further: nearly all actives have a fitted effect of over 60% in size.
On the % scale 0 is the no-effect control and ±100 the full control effect; potency means the concentration at half of the fitted maximal effect; tags describe the fitted curve by direction and shape.

UniProt Q9UIF8, sequence (Q9UIF8 whole entry, looked up, the tested form may be a part): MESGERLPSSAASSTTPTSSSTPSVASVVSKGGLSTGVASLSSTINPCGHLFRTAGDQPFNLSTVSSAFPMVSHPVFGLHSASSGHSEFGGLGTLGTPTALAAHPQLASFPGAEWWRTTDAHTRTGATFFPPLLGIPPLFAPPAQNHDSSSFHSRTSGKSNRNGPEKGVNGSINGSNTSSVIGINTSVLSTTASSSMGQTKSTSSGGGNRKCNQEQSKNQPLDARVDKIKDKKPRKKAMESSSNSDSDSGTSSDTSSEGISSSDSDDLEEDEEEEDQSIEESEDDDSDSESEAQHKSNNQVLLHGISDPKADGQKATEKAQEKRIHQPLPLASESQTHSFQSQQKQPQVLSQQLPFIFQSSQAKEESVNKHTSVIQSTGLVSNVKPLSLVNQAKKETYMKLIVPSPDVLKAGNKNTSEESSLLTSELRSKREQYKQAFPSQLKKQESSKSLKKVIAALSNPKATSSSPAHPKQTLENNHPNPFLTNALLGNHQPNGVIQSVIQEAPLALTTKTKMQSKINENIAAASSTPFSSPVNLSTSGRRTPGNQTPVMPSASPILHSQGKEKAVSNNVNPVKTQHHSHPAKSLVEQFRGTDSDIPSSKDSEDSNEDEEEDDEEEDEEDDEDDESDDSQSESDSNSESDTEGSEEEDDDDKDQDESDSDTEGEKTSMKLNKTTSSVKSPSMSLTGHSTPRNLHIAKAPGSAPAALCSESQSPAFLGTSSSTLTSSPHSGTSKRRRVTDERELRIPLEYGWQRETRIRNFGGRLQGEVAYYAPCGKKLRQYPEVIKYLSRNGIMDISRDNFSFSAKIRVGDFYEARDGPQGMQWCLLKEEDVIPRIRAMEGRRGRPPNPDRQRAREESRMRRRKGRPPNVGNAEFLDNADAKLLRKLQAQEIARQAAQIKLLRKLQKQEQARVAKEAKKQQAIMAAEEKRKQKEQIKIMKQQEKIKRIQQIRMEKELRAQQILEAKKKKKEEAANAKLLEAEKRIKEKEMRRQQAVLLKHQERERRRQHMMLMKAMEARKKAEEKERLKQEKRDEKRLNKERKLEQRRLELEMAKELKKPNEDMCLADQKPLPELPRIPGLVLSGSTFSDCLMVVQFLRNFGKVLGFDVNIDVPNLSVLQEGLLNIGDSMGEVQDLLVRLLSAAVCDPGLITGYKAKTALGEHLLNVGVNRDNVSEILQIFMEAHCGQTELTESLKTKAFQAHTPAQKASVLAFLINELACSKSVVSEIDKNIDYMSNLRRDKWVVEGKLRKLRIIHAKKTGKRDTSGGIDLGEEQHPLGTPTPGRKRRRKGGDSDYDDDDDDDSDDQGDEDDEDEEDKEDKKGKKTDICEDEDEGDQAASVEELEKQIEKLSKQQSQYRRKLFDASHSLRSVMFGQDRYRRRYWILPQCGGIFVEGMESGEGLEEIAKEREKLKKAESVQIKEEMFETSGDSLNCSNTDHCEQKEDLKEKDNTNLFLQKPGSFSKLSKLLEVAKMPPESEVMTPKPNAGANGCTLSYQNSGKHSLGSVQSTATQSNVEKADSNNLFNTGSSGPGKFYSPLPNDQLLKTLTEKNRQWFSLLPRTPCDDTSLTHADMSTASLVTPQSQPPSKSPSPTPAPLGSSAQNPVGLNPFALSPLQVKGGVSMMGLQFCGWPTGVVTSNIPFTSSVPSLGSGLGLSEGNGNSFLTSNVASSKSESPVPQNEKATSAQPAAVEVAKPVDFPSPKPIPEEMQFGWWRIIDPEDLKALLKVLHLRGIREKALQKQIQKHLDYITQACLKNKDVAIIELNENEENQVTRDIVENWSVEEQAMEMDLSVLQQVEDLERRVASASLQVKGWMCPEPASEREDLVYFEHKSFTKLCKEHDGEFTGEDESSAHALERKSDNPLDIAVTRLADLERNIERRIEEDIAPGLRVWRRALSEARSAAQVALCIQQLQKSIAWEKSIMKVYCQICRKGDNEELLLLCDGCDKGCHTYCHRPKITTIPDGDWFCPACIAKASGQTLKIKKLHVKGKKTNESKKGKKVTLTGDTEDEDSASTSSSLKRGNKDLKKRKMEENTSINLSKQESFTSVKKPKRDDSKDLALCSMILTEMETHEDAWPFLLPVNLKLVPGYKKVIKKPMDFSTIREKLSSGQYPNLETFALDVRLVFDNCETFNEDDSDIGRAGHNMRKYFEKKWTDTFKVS

Q: Which “activity change, negative = inhibition” value does the source give for `Cc1ccc2nc(NC(=O)C3CCCN3C(=O)OC(C)(C)C)sc2c1` (stereo not given) here?
A: inactive: -14.2%

Q: With `N#C/C(=C(/O)CN1CCOCC1)c1nc(-c2ccccc2)cs1` as the compound, how does the Potency read?
A: inconclusive: 89.1 µM [inhibitor, single point]

Q: With `O=C(/C=C/c1ccc(Br)cc1)c1ccco1` as the compound, how does the “activity change, negative = inhibition” value read?
A: inactive: 1.19%

Q: `O=C(COc1ccc(S(=O)(=O)NC2CCCCC2)cc1)Nc1ccc(C(F)(F)F)cc1` was tested. Which “activity change, negative = inhibition” value did it give?
A: inactive: 1.86%

Q: How did the Potency turn out when `CC(O)c1cccc(N=Cc2ccc3ccccc3c2O)c1` (stereo not given) was run?
A: inconclusive: 89.1 µM [inhibitor, single point]

Q: For `Cc1c(C(=O)NCc2ccccc2F)oc2ccccc12`, which Potency is on record?
A: inconclusive: 89.1 µM [inhibitor, single point]

Q: With `CCNC(=O)C1CC(=O)N(Cc2ccc3c(c2)OCO3)C(=Nc2ccc(OCC)cc2)S1` (stereo not given) as the compound, how does the Potency read?
A: active: 50.1 µM

Q: With `Nc1nc(-c2ccc(F)cc2)cs1` as the compound, how does the Potency read?
A: inconclusive: 44.7 µM [inhibitor, partial curve]

Q: With `Cc1cccc(CSc2cn(CC(=O)N3CCCC3)c3ccccc23)c1` as the compound, how does the Potency read?
A: inconclusive: 70.8 µM [inhibitor, single point]

Q: `CCOc1ccc2c(c1)C(c1ccc(C)o1)=NNC(c1ccncc1)=N2` was tested. Which Potency did it give?
A: inconclusive: 89.1 µM [inhibitor, single point]

Q: For `CN(C)c1cc(O)c(C(=S)Nc2ccccc2)c(N(C)C)c1`, which Potency is on record?
A: inconclusive: 44.7 µM [inhibitor, partial curve]

Q: Which “activity change, negative = inhibition” value does the source give for `CCC(Oc1ccccc1)C(=O)Nc1ccc2oc(-c3ccc(OC)cc3)nc2c1` (stereo not given) here?
A: inactive: -2.74%

Q: `C[n+]1ccc(/C=C/c2ccccc2O)c2ccccc21` was tested. Which Potency did it give?
A: inconclusive: 89.1 µM [inhibitor, single point]

Q: How did the Potency turn out when `N/C(=N\OC(=O)CCCOc1ccccc1)c1ccc([N+](=O)[O-])cc1` was run?
A: inconclusive: 25.1 µM [inhibitor, full curve]

Q: For `CCCn1c(C(C)Nc2nc(-c3ccc(C)cc3)cs2)nc2cc(Cl)c(Cl)cc21` (stereo not given), which Potency is on record?
A: inconclusive: 39.8 µM [inhibitor, partial curve]

Q: `O=C(O)c1ccc(-c2cccc([N+](=O)[O-])c2)o1` was tested. Which Potency did it give?
A: inconclusive: 100 µM [inhibitor, partial curve]

Q: With `COc1cc(/C=C2/C(=O)ON=C2C)cc(Cl)c1O` as the compound, how does the Potency read?
A: active: 56.2 µM

Q: `CCOc1ccc(-c2nc(CSCC(=O)N3CCN(c4cccc(OC)c4)CC3)c(C)o2)cc1` was tested. Which Potency did it give?
A: inconclusive: 35.5 µM [inhibitor, partial curve]

Q: Which “activity change, negative = inhibition” value does the source give for `O=c1[nH]c2ccccc2n2cnnc12` here?
A: inactive: -2.1%

Q: For `COc1cc(NC(=O)CCc2nnc3ccc(N4CCOCC4)nn23)cc(OC)c1OC`, which “activity change, negative = inhibition” value is on record?
A: inactive: 0.347%

Q: How did the Potency turn out when `COc1ccc(/C=N\NC(=O)c2ccccc2F)cc1COc1ccc(F)cc1F` was run?
A: inconclusive: 89.1 µM [inhibitor, partial curve]

Q: How did the Potency turn out when `O=C(Nc1nc(-c2ccc(F)c(F)c2)cs1)c1cnccn1` was run?
A: inconclusive: 100 µM [inhibitor, single point]

Q: With `C/C(=C\c1ccco1)C1C(C#N)=C(N)Oc2n[nH]c(-c3ccccc3)c21` (stereo not given) as the compound, how does the Potency read?
A: inconclusive: 44.7 µM [inhibitor, partial curve]

Q: With `O=C(NCc1cccnc1)C1CCN(Cc2cc3ccccc3n2Cc2cccc(Cl)c2)CC1` as the compound, how does the Potency read?
A: inconclusive: 39.8 µM [inhibitor, partial curve]

Q: How did the “activity change, negative = inhibition” value turn out when `CC(CCC(C)OC(=O)c1ccccc1C(=O)O)OC(=O)c1ccccc1C(=O)O` (stereo not given) was run?
A: inactive: -1.02%

Q: With `O=C(O)c1cc(-c2cccs2)nn1-c1ccc(F)cc1` as the compound, how does the Potency read?
A: inconclusive: 89.1 µM [inhibitor, single point]

Q: Which Potency does the source give for `CCCSc1nnc(NC(=O)CSc2sc3c(O)cc(=O)[nH]c3c2C#N)s1` here?
A: active: 39.8 µM

Q: With `NC(=O)C1CCN(c2nc(-c3ccc4occc(=O)c4c3)cs2)CC1` as the compound, how does the Potency read?
A: inconclusive: 50.1 µM [inhibitor, partial curve]

Q: How did the “activity change, negative = inhibition” value turn out when `S=c1[nH]nc(-c2ccc(Cl)cc2)n1-c1cccnc1` was run?
A: inactive: -15.9%

Q: How did the Potency turn out when `COC(=O)C1=CN(c2cccc(C)c2)C=C(C(=O)OC)C1c1cc(OC)c(O)c([N+](=O)[O-])c1` was run?
A: active: 28.2 µM

Q: For `CC(Oc1ccccc1)C(=O)Nc1oc(-c2ccco2)c(-c2ccco2)c1C#N` (stereo not given), which Potency is on record?
A: inconclusive: 35.5 µM [inhibitor, partial curve]

Q: For `Cc1cccc(-n2cnc(C(=O)NNC(=S)Nc3ccc(Cl)cc3)c2)n1`, which Potency is on record?
A: active: 11.2 µM

Q: For `CCOC(=O)c1cc(-c2ccc(C)cc2)n(CCC(=O)N2CCN(c3ccccn3)CC2)c1C`, which Potency is on record?
A: active: 44.7 µM

Q: `COc1ccc(-c2nn(C)c(=O)[nH]2)cc1` was tested. Which “activity change, negative = inhibition” value did it give?
A: inactive: 2.93%

Q: `COc1ccc(/C=C/c2nc(C#N)c(NCCc3ccc(OC)c(OC)c3)o2)cc1OC` was tested. Which Potency did it give?
A: inconclusive: 44.7 µM [inhibitor, partial curve]

Q: `CCOC(=O)/C(=N\Nc1ccc(OC)cc1)c1csc(Nc2ccccc2)n1` was tested. Which Potency did it give?
A: inconclusive: 28.2 µM [inhibitor, full curve]

Q: `O=C(O)CCCN=CC1=C(O)CNC1=O` was tested. Which “activity change, negative = inhibition” value did it give?
A: inactive: -17.5%

Q: `COc1cc(OC)c(NC(=O)NC(C)c2c(-n3cccc3)sc(C)c2C)cc1Cl` (stereo not given) was tested. Which “activity change, negative = inhibition” value did it give?
A: inactive: -17.8%

Q: How did the Potency turn out when `Nc1ccccc1SC(C[N+](=O)[O-])c1ccccc1` (stereo not given) was run?
A: active: 44.7 µM

Q: Which Potency does the source give for `Cc1ccc(C2=C(c3ccc([N+](=O)[O-])cc3)C(=O)OC2)cc1C` here?
A: inconclusive: 31.6 µM [inhibitor, partial curve]

Q: With `O=C(c1ccco1)N1CCN(Cc2ccccc2Br)CC1` as the compound, how does the Potency read?
A: active: 31.6 µM

Q: How did the “activity change, negative = inhibition” value turn out when `CCN(CC)CCCn1c2c(c(SCC(=O)N3CCCc4ccccc43)nc1=O)CCC2` was run?
A: inactive: 3.97%

Q: Which “activity change, negative = inhibition” value does the source give for `Cn1nc(-c2ccc(Cl)cc2)c2cc(C(=O)NC3CC3)sc21` here?
A: inactive: -2.02%

Q: Which “activity change, negative = inhibition” value does the source give for `CC(=O)Nc1nnc(Cc2c[nH]c3ccccc23)s1` here?
A: inactive: 15.7%

Q: For `Cc1cccc(OCCCCCn2ccnc2)c1C`, which Potency is on record?
A: inconclusive: 50.1 µM [inhibitor, partial curve]

Q: Which Potency does the source give for `COC(=O)\C(C(C)=O)=C(/C=C/C=C/C=C/N(C)C)N(C)C` here?
A: active: 17.8 µM

Q: How did the “activity change, negative = inhibition” value turn out when `CCCCOc1ccc(CNC(=O)C2CCN(c3nnc(-n4cccc4CNc4ccc(C)cc4)s3)CC2)cc1` was run?
A: inactive: 2.96%

Q: How did the Potency turn out when `CCN(CC)Cc1nc2c(c(=O)[nH]1)C1(CCCC1)Cc1ccccc1-2` was run?
A: inconclusive: 70.8 µM [inhibitor, single point]

Q: With `O=C1CSc2nc3ccccc3n21` as the compound, how does the “activity change, negative = inhibition” value read?
A: inactive: -11.2%

Q: How did the Potency turn out when `O=C(Cc1ccc(-n2cccc2)cc1)NC1CCCCCC1` was run?
A: inconclusive: 39.8 µM [inhibitor, partial curve]

Q: How did the Potency turn out when `CCC1Nc2ncnc(N3CCN(c4ccccc4)CC3)c2N(Cc2ccc(Br)cc2)C1=O` (stereo not given) was run?
A: inconclusive: 44.7 µM [inhibitor, partial curve]

Q: Which “activity change, negative = inhibition” value does the source give for `Cc1ccccc1-n1ncc2c1CC(C)(C)CC2NC(=O)c1cn[nH]c1C` (stereo not given) here?
A: inactive: -9.29%

Q: `Cc1cc[n+](-c2[nH]c(=O)sc2/C=N/NC([S-])=Nc2ccccc2)cc1C` was tested. Which Potency did it give?
A: inconclusive: 70.8 µM [inhibitor, single point]

Q: With `CCOC(=O)C1CN(S(=O)(=O)c2ccccc2)CCN1S(=O)(=O)c1ccccc1` (stereo not given) as the compound, how does the “activity change, negative = inhibition” value read?
A: inactive: -11.7%

Q: Which Potency does the source give for `O=C(c1ccco1)[C@@H]1[C@@H]2C(=O)N(c3ccc(Br)cc3)C(=O)[C@@H]2C2c3ccccc3C=CN21` (stereo not given in full) here?
A: inconclusive: 79.4 µM [inhibitor, single point]

Q: Which Potency does the source give for `CC(C)Cn1c(SCC(=O)c2ccc(Cl)s2)nnc1-c1ccco1` here?
A: inconclusive: 50.1 µM [inhibitor, partial curve]

Q: `COC(CNC(=O)c1ccc(N2CCc3ccccc32)c([N+](=O)[O-])c1)OC` was tested. Which Potency did it give?
A: active: 39.8 µM

Q: How did the “activity change, negative = inhibition” value turn out when `Cc1cc2nc(-c3cc(NC(=O)c4cc5ccccc5o4)ccc3Cl)oc2cc1C` was run?
A: inactive: 1.23%

Q: How did the Potency turn out when `CCN(CC)c1ccc(NC(=O)COC(=O)c2cccs2)cc1` was run?
A: active: 44.7 µM

Q: How did the “activity change, negative = inhibition” value turn out when `Cc1ccc(-n2c(SCC(=O)OC(C)C)nnc2-c2ccco2)cc1` was run?
A: inactive: 0.915%

Q: Which “activity change, negative = inhibition” value does the source give for `COc1ccc(CN2CCC(n3nccc3NC(=O)CCc3ccccc3)CC2)c(C)c1C` here?
A: inactive: -9.04%

Q: With `N=C1C(c2ccccc2)=C(O)CN1CCCO` as the compound, how does the “activity change, negative = inhibition” value read?
A: inactive: -4.27%

Q: `CCCC(NS(=O)(=O)c1ccc(-c2ccc(=O)[nH]n2)s1)c1cccs1` (stereo not given) was tested. Which Potency did it give?
A: inconclusive: 79.4 µM [inhibitor, single point]

Q: `Cc1cc(C(=O)CSc2nnc(-c3ccc(Cl)cc3)n2CC2CCCO2)c(C)n1C` (stereo not given) was tested. Which Potency did it give?
A: inconclusive: 89.1 µM [inhibitor, single point]

Q: `O=C(COC(=O)c1ccc2ncsc2c1)NCc1ccc(F)cc1` was tested. Which Potency did it give?
A: inconclusive: 89.1 µM [inhibitor, single point]

Q: How did the Potency turn out when `OCc1ccc(-c2nn(Cc3ccccc3)c3ccccc23)o1` was run?
A: active: 39.8 µM

Q: With `CCc1ccc(NC(=O)C2CCN(C(=O)N3CC(CC)Oc4ccccc43)CC2)cc1` (stereo not given) as the compound, how does the Potency read?
A: inconclusive: 50.1 µM [inhibitor, partial curve]

Q: `C=CCn1c(C)cc(C(=O)COc2nncc3ccccc23)c1C` was tested. Which Potency did it give?
A: inconclusive: 35.5 µM [inhibitor, full curve, poor fit]

Q: With `O=C(Nc1ccc(F)cc1)[C@H](CSCc1ccccc1)N1Cc2ccccc2C1=O` as the compound, how does the “activity change, negative = inhibition” value read?
A: inactive: -8.31%

Q: How did the Potency turn out when `O=C(Cc1cccs1)N1CCN(c2ccc([N+](=O)[O-])cc2)CC1` was run?
A: active: 56.2 µM

Q: `O=C(OCC(=O)c1c[nH]c2ccccc12)c1ccc([N+](=O)[O-])s1` was tested. Which Potency did it give?
A: inconclusive: 50.1 µM [inhibitor, partial curve, poor fit]

Q: With `COc1c(C)cccc1C(=O)NC(=S)Nc1ccccc1N1CCCC1` as the compound, how does the Potency read?
A: inconclusive: 12.6 µM [inhibitor, full curve]

Q: Which Potency does the source give for `CN1CCN(CCOc2ccc(Cl)c(Cl)c2)CC1` here?
A: active: 50.1 µM

Q: How did the Potency turn out when `CC1CC(Nc2ccccc2)c2ccccc2N1C(=O)c1ccncc1` (stereo not given) was run?
A: inconclusive: 39.8 µM [inhibitor, partial curve]

Q: How did the Potency turn out when `COc1ccc2nc(SCC(=O)c3c(C)[nH]c4ccccc34)nc(C)c2c1` was run?
A: inconclusive: 89.1 µM [inhibitor, single point]
